Measured values from the supplement of paper PMC8728848.
This is one part of the list.

Tests used:
Experiment in all cases: glycan array binding signal (z-score within array); higher = stronger binding
Conditions in all cases: glycan notation: IUPAC condensed, linker removed
[1] = molecular target: Neu5Ac(a2-6)Gal(b1-4)GlcNAc(b1-2)Man(a1-3)[Man(a1-6)]Man(b1-4)GlcNAc(b1-4)GlcNAc
In short: (§1)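 Glycan array binding is given as a within-array Z-score, which can be read as non-binding when negative. The arrays, 3228 of them, came from the Consortium for Functional Glycomics database and were retained only where the protein sequence was available. Z-scores were averaged across arrays of the same protein sequence at different concentrations or buffers and across linkers.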

[2] = molecular target: Neu5Ac(a2-6)Gal(b1-4)GlcNAc(b1-2)Man(a1-3)[Neu5Ac(a2-3)Gal(b1-4)GlcNAc(b1-2)Man(a1-6)]Man(b1-4)GlcNAc(b1-4)GlcNAc
In short: as §1

[3] = molecular target: Neu5Ac(a2-6)Gal(b1-4)GlcNAc(b1-2)Man(a1-3)[Neu5Ac(a2-6)Gal(b1-4)GlcNAc(b1-2)Man(a1-6)]Man(b1-4)GlcNAc(b1-4)GlcNAc
In short: as §1

[4] = molecular target: Neu5Ac(a2-6)Gal(b1-4)GlcNAc(b1-2)Man(a1-3)[Neu5Ac(a2-6)Gal(b1-4)GlcNAc(b1-2)Man(a1-6)]Man(b1-4)GlcNAc(b1-4)[Fuc(a1-6)]GlcNAc
In short: as §1

[5] = molecular target: Neu5Ac(a2-6)Gal(b1-4)GlcNAc(b1-2)Man(a1-6)Man(b1-4)GlcNAc(b1-4)GlcNAc
In short: as §1

[6] = molecular target: Neu5Ac(a2-6)Gal(b1-4)GlcNAc(b1-2)Man(a1-6)[Gal(b1-4)GlcNAc(b1-2)Man(a1-3)]Man(b1-4)GlcNAc(b1-4)GlcNAc
In short: as §1

[7] = molecular target: Neu5Ac(a2-6)Gal(b1-4)GlcNAc(b1-2)Man(a1-6)[GlcNAc(b1-2)Man(a1-3)]Man(b1-4)GlcNAc(b1-4)GlcNAc
In short: as §1

[8] = molecular target: Neu5Ac(a2-6)Gal(b1-4)GlcNAc(b1-2)Man(a1-6)[Man(a1-3)]Man(b1-4)GlcNAc(b1-4)GlcNAc
In short: as §1

[9] = molecular target: Neu5Ac(a2-6)Gal(b1-4)GlcNAc(b1-2)[Neu5Ac(a2-6)Gal(b1-4)GlcNAc(b1-4)]Man(a1-3)[GlcNAc(b1-4)][Neu5Ac(a2-6)Gal(b1-4)GlcNAc(b1-2)[Neu5Ac(a2-6)Gal(b1-4)GlcNAc(b1-6)]Man(a1-6)]Man(b1-4)GlcNAc(b1-4)GlcNAc
In short: as §1

[10] = molecular target: Neu5Ac(a2-6)Gal(b1-4)GlcNAc(b1-2)[Neu5Ac(a2-6)Gal(b1-4)GlcNAc(b1-4)]Man(a1-3)[GlcNAc(b1-4)][Neu5Ac(a2-6)Gal(b1-4)GlcNAc(b1-4)Man(a1-6)]Man(b1-4)GlcNAc(b1-4)GlcNAc
In short: as §1

[11] = molecular target: Neu5Ac(a2-6)Gal(b1-4)GlcNAc(b1-2)[Neu5Ac(a2-6)Gal(b1-4)GlcNAc(b1-6)]Man(a1-6)[Neu5Ac(a2-6)Gal(b1-4)GlcNAc(b1-2)Man(a1-3)][GlcNAc(b1-4)]Man(b1-4)GlcNAc(b1-4)GlcNAc
In short: as §1

[12] = molecular target: Neu5Ac(a2-6)Gal(b1-4)GlcNAc(b1-3)Gal(b1-3)GlcNAc
In short: as §1

[13] = molecular target: Neu5Ac(a2-6)Gal(b1-4)GlcNAc(b1-3)Gal(b1-4)GlcNAc
In short: as §1

[14] = molecular target: Neu5Ac(a2-6)Gal(b1-4)GlcNAc(b1-3)Gal(b1-4)GlcNAc(b1-2)Man(a1-3)[Neu5Ac(a2-6)Gal(b1-4)GlcNAc(b1-3)Gal(b1-4)GlcNAc(b1-2)Man(a1-6)]GalNAc
In short: as §1

[15] = molecular target: Neu5Ac(a2-6)Gal(b1-4)GlcNAc(b1-3)Gal(b1-4)GlcNAc(b1-3)Gal(b1-4)GlcNAc
In short: as §1

[16] = molecular target: Neu5Ac(a2-6)Gal(b1-4)GlcNAc(b1-3)Gal(b1-4)GlcNAc(b1-3)Gal(b1-4)GlcNAc(b1-2)Man(a1-3)[Neu5Ac(a2-6)Gal(b1-4)GlcNAc(b1-3)Gal(b1-4)GlcNAc(b1-3)Gal(b1-4)GlcNAc(b1-2)Man(a1-6)]GalNAc
In short: as §1

[17] = molecular target: Neu5Ac(a2-6)Gal(b1-4)GlcNAc(b1-3)Gal(b1-4)GlcNAc(b1-3)GalNAc
In short: as §1

[18] = molecular target: Neu5Ac(a2-6)Gal(b1-4)GlcNAc(b1-3)Gal(b1-4)GlcNAc(b1-3)[Neu5Ac(a2-6)Gal(b1-4)GlcNAc(b1-3)Gal(b1-4)GlcNAc(b1-6)]GalNAc
In short: as §1

[19] = molecular target: Neu5Ac(a2-6)Gal(b1-4)GlcNAc(b1-3)Gal(b1-4)GlcNAc(b1-6)[Gal(b1-3)]GalNAc
In short: as §1

[20] = molecular target: Neu5Ac(a2-6)Gal(b1-4)GlcNAc(b1-3)Gal(b1-4)[Fuc(a1-3)]GlcNAc(b1-3)Gal(b1-4)[Fuc(a1-3)]GlcNAc
In short: as §1

[21] = molecular target: Neu5Ac(a2-6)Gal(b1-4)GlcNAc(b1-3)GalNAc
In short: as §1

[22] = molecular target: Neu5Ac(a2-6)Gal(b1-4)GlcNAc(b1-3)[Neu5Ac(a2-6)Gal(b1-4)GlcNAc(b1-6)]GalNAc
In short: as §1

[23] = molecular target: Neu5Ac(a2-6)Gal(b1-4)GlcNAc(b1-6)GalNAc
In short: as §1

[24] = molecular target: Neu5Ac(a2-6)Gal(b1-4)GlcNAc(b1-6)[Gal(b1-3)GlcNAc(b1-3)]Gal(b1-4)Glc
In short: as §1

[25] = molecular target: Neu5Ac(a2-6)Gal(b1-4)GlcNAc(b1-6)[Gal(b1-3)]GalNAc
In short: as §1

[26] = molecular target: Neu5Ac(a2-6)Gal(b1-4)GlcNAc6S
In short: as §1

Neu5Ac(a2-6)GalNAc = molecular target: Neu5Ac(a2-6)GalNAc
In short: as §1

[27] = molecular target: Neu5Ac(a2-6)GalNAc(b1-4)GlcNAc
In short: as §1

[28] = molecular target: Neu5Ac(a2-6)GalNAc(b1-4)GlcNAc6S
In short: as §1

[29] = molecular target: Neu5Ac(a2-6)GlcNAc(b1-4)GlcNAc
In short: as §1

B1: Di AAL2 (Agrocybe aegerita) (protein)
chain: MTSNVITQDLPIPVASRGFADIVGFGLDGVVIGRNAVNLQPFLAVKNFAQNAGGWLTTKHVRLIADTTGTGKGDIVGFGNAGVYVSVNNGKNTFADPPKMVIANFGYDAGGWRVEKHLRYLADIRKIGRADIIGFGEKGVLVSRNNGGLNFGPATLVLKDFGYDAGGWRLDRHLRFLADVTGNGHLDIVGFGDKHVFISRNNGDGTFAPAKSVIDNFCIDAGGWKIGDHPRFVADLTGDGTADIIGCGKAGCWVALNNGGGVFGQVKLVINDFGTDKGWQAAKHPRFIADLTGNGRGDVVGFGNAGVYVALNNGDGTFQSAKLVLKDFGVQQGWTVSKHRRFVVDLTGDGCADIIGFGEKETLVSYNDGKGNFGPVKALTNDFSFSGGKWAPETTVCWMANLDSSRHPAPAPMTSNVITQDLPIPVASRGFADIVGFGLDGVVIGRNAVNLQPFLAVKNFAQNAGGWLTTKHVRLIADTTGTGKGDIVGFGNAGVYVSVNNGKNTFADPPKMVIANFGYDAGGWRVEKHLRYLADIRKIGRADIIGFGEKGVLVSRNNGGLNFGPATLVLKDFGYDAGGWRLDRHLRFLADVTGNGHLDIVGFGDKHVFISRNNGDGTFAPAKSVIDNFCIDAGGWKIGDHPRFVADLTGDGTADIIGCGKAGCWVALNNGGGVFGQVKLVINDFGTDKGWQAAKHPRFIADLTGNGRGDVVGFGNAGVYVALNNGDGTFQSAKLVLKDFGVQQGWTVSKHRRFVVDLTGDGCADIIGFGEKETLVSYNDGKGNFGPVKALTNDFSFSGGKWAPETTVCWMANLDSSRH
**Q.** How did the “glycan array binding signal (z-score)” value [1] turn out when B1 was run?
**A.** -0.328

**Q.** And the “glycan array binding signal (z-score)” value [2]?
**A.** -0.267

**Q.** And the “glycan array binding signal (z-score)” value [3]?
**A.** -0.269

**Q.** What about the “glycan array binding signal (z-score)” value [4] of the same binder?
**A.** -0.282

**Q.** What about the “glycan array binding signal (z-score)” value [5] of the same binder?
**A.** -0.327

**Q.** And the “glycan array binding signal (z-score)” value [6]?
**A.** -0.33

**Q.** And the “glycan array binding signal (z-score)” value [7]?
**A.** 0.064

**Q.** And the “glycan array binding signal (z-score)” value [8]?
**A.** -0.329

**Q.** And the “glycan array binding signal (z-score)” value [9]?
**A.** -0.312

**Q.** What about the “glycan array binding signal (z-score)” value [10] of the same binder?
**A.** -0.301

**Q.** And the “glycan array binding signal (z-score)” value [11]?
**A.** -0.315

**Q.** And the “glycan array binding signal (z-score)” value [12]?
**A.** -0.261

**Q.** What about the “glycan array binding signal (z-score)” value [13] of the same binder?
**A.** -0.239

**Q.** What about the “glycan array binding signal (z-score)” value [14] of the same binder?
**A.** -0.119

**Q.** And the “glycan array binding signal (z-score)” value [15]?
**A.** -0.09

**Q.** And the “glycan array binding signal (z-score)” value [16]?
**A.** -0.101

**Q.** And the “glycan array binding signal (z-score)” value [17]?
**A.** -0.295

**Q.** And the “glycan array binding signal (z-score)” value [18]?
**A.** -0.219

**Q.** And the “glycan array binding signal (z-score)” value [19]?
**A.** -0.309

**Q.** And the “glycan array binding signal (z-score)” value [20]?
**A.** -0.307

**Q.** What about the “glycan array binding signal (z-score)” value [21] of the same binder?
**A.** -0.286

**Q.** What about the “glycan array binding signal (z-score)” value [22] of the same binder?
**A.** -0.251

**Q.** And the “glycan array binding signal (z-score)” value [23]?
**A.** -0.205

**Q.** What about the “glycan array binding signal (z-score)” value [24] of the same binder?
**A.** -0.311

**Q.** What about the “glycan array binding signal (z-score)” value [25] of the same binder?
**A.** -0.324

**Q.** What about the “glycan array binding signal (z-score)” value [26] of the same binder?
**A.** -0.155

**Q.** What about the “glycan array binding signal (z-score)” value (Neu5Ac(a2-6)GalNAc) of the same binder?
**A.** -0.196

**Q.** What about the “glycan array binding signal (z-score)” value [27] of the same binder?
**A.** -0.285

**Q.** What about the “glycan array binding signal (z-score)” value [28] of the same binder?
**A.** -0.23

**Q.** What about the “glycan array binding signal (z-score)” value [29] of the same binder?
**A.** 1.47
